In the supplement of paper PMC4723716:
± gives the uncertainty stated by the source. Over roughly 9,900 compounds, “viability index relative to DMSO control” has its median near 1; the lowest 2% begin near 0.85. The list shows a part of the results.

System: Plasmodium falciparum NF54 stage V gametocytes
Assay: viability index relative to DMSO control (fraction); higher = less gametocyte killing
Settings: 2.5 µM, incubation time: 72 h
In short: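 Compound at 2.5 µM was incubated for 72 hr at 37°C under low oxygen with P. falciparum NF54 stage V gametocytes (0.75% gametocytemia, 1.25% hematocrit, 10 µl, serum-free screening medium) in 1,536-well plates. Staining used 3 µl of 2.5 µM MitoTracker Red CMXRos plus 0.13% saponin for one to two hours, and red particles of 20–70 µm2 were counted in one imaged field per well. Each viability index is that count relative to the plate mean of solvent-only wells.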

[1] = library set: Broad Institute DOS
[2] = library set: Broad Institute Blood Stage

How did the viability index [1] turn out when `COc1ccc(CN(C)C[C@@H]2OCc3cnnn3CCCC(=O)N([C@@H](C)CO)C[C@H]2C)cc1` was run?
The viability index was 1.02 ± 0.061.

With `CC(C)NC(=O)N1[C@H](CO)[C@H](c2ccccc2)C12CN(C(=O)c1ccccn1)C2` as the compound, how does the viability index [1] read?
The viability index was 1.04 ± 0.019.

Which viability index [1] does the source give for `O=C1CN(S(=O)(=O)c2cccc(F)c2)C[C@@H]2[C@H](c3ccc(C4=CCCC4)cc3)[C@H](CO)N12` here?
The viability index was 1.01 ± 0.059.

With `CS(=O)(=O)Nc1ccc2c(c1)[C@@H]1C[C@@H](CC(=O)NCc3cc(F)ccc3F)O[C@@H](CO)[C@@H]1O2` as the compound, how does the viability index [1] read?
The viability index was 1.1 ± 0.064.

With `COc1ccc(C(=O)Nc2ccc3c(c2)C(=O)N(C)[C@@H]2CC[C@H](CC(=O)NCC4CC4)O[C@@H]2CO3)cc1` as the compound, how does the viability index [1] read?
The viability index was 0.984 ± 0.14.

`CCS(=O)(=O)N1CC2(C1)[C@H](c1ccccc1)[C@@H](CO)N2Cc1ccccn1` was tested. Which viability index [1] did it give?
The viability index was 1.09 ± 0.018.

For `O=C(C[C@@H]1C=C[C@H](NS(=O)(=O)c2ccc(F)cc2)[C@@H](CO)O1)N1CCc2ccccc2C1`, which viability index [1] is on record?
The viability index was 0.943 ± 0.012.

With `CN(C)CC(=O)N[C@H]1C=C[C@H](CC(=O)NCc2ccc(Cl)cc2)O[C@@H]1CO` as the compound, how does the viability index [1] read?
The viability index was 1.08 ± 0.087.

With `O=C(C[C@@H]1CC[C@H]2NC[C@H](O)COC[C@@H]2O1)NCCN1CCCCC1` as the compound, how does the viability index [1] read?
The viability index was 1.03 ± 0.051.

For `COc1ccc(C#Cc2ccc3c(c2)[C@@H]2[C@@H](CCN2C(=O)C2CCOCC2)[C@@H](CO)N3)cc1`, which viability index [1] is on record?
Its viability index is 1.07 ± 0.05.

How did the viability index [1] turn out when `CCCNC(=O)N(C)C[C@@H]1Oc2cc(C#C[C@@H](C)O)ccc2S(=O)(=O)N([C@@H](C)CO)C[C@H]1C` was run?
Its viability index is 0.981 ± 0.099.

For `O=C([C@H]1[C@H](CO)[C@H]2Cn3c(cccc3=O)[C@H]2N1C(=O)CC1CC1)N1CCc2ccccc2C1`, which viability index [1] is on record?
Its viability index is 1.1 ± 0.061.

Which viability index [1] does the source give for `COCC(=O)N1CC[C@@]2(CC1)CN(Cc1cc(F)ccc1F)[C@@H](CO)c1c2c2ccc(OC)cc2n1C` here?
The viability index was 0.936 ± 0.069.

`OC[C@H]1[C@H](c2ccc(C#Cc3ccccc3F)cc2)[C@@H]2CN(CC3CCOCC3)CCCCN12` was tested. Which viability index [1] did it give?
The viability index was 0.8726 ± 0.0019.

How did the viability index [1] turn out when `CCC(=O)N1[C@H](CO)[C@@H]2c3ccccc3N(C(=O)Nc3ccc(Cl)cc3)C[C@@H]21` was run?
The viability index was 1.04 ± 0.024.

With `COc1ccc2c3c([nH]c2c1)[C@@H](CO)N(C[C@]31CCN(CC2CCCCC2)CC1)C(=O)CN(C)C` as the compound, how does the viability index [2] read?
The viability index was 0.807 ± 0.026.

Which viability index [1] does the source give for `COCC(=O)N1[C@H](C#N)[C@@H](c2ccccc2-c2ccccc2F)[C@@H]1CO` here?
The viability index was 1.15 ± 0.11.

Which viability index [1] does the source give for `O=C(C[C@H]1CC[C@H]2[C@@H](COC[C@@H](O)CN2S(=O)(=O)c2ccccc2F)O1)N1CCC(Cc2ccccc2)CC1` here?
The viability index was 0.996 ± 0.1.

For `CCCNC(=O)[C@@H]1[C@@H](CO)[C@@H]2Cn3c(ccc(/C=C/c4ccccc4)c3=O)[C@@H]2N1CC1CC1`, which viability index [1] is on record?
Its viability index is 0.9825 ± 0.0088.

`Cc1noc(C)c1NC(=O)N(C)C[C@@H]1OCc2cnnn2CCCC(=O)N([C@@H](C)CO)C[C@@H]1C` was tested. Which viability index [1] did it give?
The viability index was 1.16 ± 0.018.

Which viability index [1] does the source give for `O=C(C[C@@H]1CC[C@H]2[C@@H](COC[C@@H](O)CN2CC2CCOCC2)O1)NCC1CCCCC1` here?
Its viability index is 0.9901 ± 0.0047.

`Cc1noc(C)c1NC(=O)Nc1ccc2c(c1)C(=O)N([C@@H](C)CO)C[C@H](C)[C@@H](CN(C)S(=O)(=O)c1ccc(F)cc1)O2` was tested. Which viability index [1] did it give?
The viability index was 0.984 ± 0.055.

With `CCN(C[C@@H]1[C@@H](c2ccc(-c3cccnc3)cc2)[C@@H](CO)N1C(C)=O)C(C)=O` as the compound, how does the viability index [1] read?
The viability index was 0.971 ± 0.043.

`CCCNC(=O)N1[C@H](C#N)[C@H](c2ccc(C3=CCCCC3)cc2)[C@@H]1CO` was tested. Which viability index [2] did it give?
Its viability index is 0.898 ± 0.025.

Which viability index [1] does the source give for `COc1ccccc1-c1ccccc1[C@@H]1[C@@H](CO)N(C(=O)C2CCOCC2)[C@H]1C#N` here?
Its viability index is 1.12 ± 0.052.

`COc1cccc(CNC(=O)[C@@H]2[C@@H](CO)[C@@H]3Cn4c(cccc4=O)[C@H]2N3C(=O)C2CCCC2)c1` was tested. Which viability index [1] did it give?
Its viability index is 1.028 ± 0.0065.

For `Cc1ccccc1-c1ccc([C@H]2[C@@H](CO)N3CCCCN(S(=O)(=O)Cc4ccccc4)C[C@@H]23)cc1`, which viability index [1] is on record?
Its viability index is 0.991 ± 0.063.

How did the viability index [1] turn out when `COCC(=O)N1[C@@H](CO)[C@H](c2ccccc2)C12CN(C(=O)c1ccccc1)C2` was run?
The viability index was 1.0697 ± 0.00093.

For `COc1ccc2c3c([C@H](CO)N(C[C@]33CCN(Cc4nccs4)CC3)S(C)(=O)=O)n(C)c2c1`, which viability index [1] is on record?
The viability index was 1.07 ± 0.015.

With `CN1C(=O)c2cc(NS(=O)(=O)c3cccc(F)c3)ccc2OC[C@@H]2O[C@@H](CC(=O)N3CCc4ccccc4C3)CC[C@@H]21` as the compound, how does the viability index [1] read?
The viability index was 1.07 ± 0.048.

Which viability index [1] does the source give for `COCC(=O)Nc1ccc2c(c1)C(=O)N(C)[C@@H]1CC[C@@H](CC(=O)NC3Cc4ccccc4C3)O[C@@H]1CO2` here?
Its viability index is 1.08 ± 0.064.

Which viability index [1] does the source give for `C[C@H](NC(=O)C[C@H]1CC[C@@H]2[C@H](COC[C@@H](O)CN2C(=O)Nc2cccc(Cl)c2)O1)c1ccccc1` here?
Its viability index is 1.02 ± 0.027.

For `CC(C)C(=O)Nc1ccc2c(c1)C(=O)N(C)[C@@H]1CC[C@@H](CC(=O)NCCc3ccccc3)O[C@H]1CO2`, which viability index [1] is on record?
Its viability index is 1.18 ± 0.099.

For `C[C@@H]1CCCCO[C@H](CN(C)Cc2ccncc2)[C@H](C)CN([C@H](C)CO)C(=O)c2cc(NC(=O)Cc3ccccc3)ccc2O1`, which viability index [1] is on record?
Its viability index is 1.12 ± 0.14.

Which viability index [1] does the source give for `CCCNC(=O)N1C[C@H](C)[C@H](OC)CN(C)C(=O)c2ccc(NC(=O)CC)cc2OC[C@H]1C` here?
Its viability index is 1 ± 0.04.

How did the viability index [1] turn out when `N#C[C@@H]1[C@H](c2ccccc2)[C@@H](CO)N1C(=O)CCN1CCCCC1` was run?
The viability index was 1.1 ± 0.14.

Which viability index [1] does the source give for `C[C@@H]1CN([C@H](C)CO)C(=O)c2c(c3ccccc3n2C)-c2ccccc2CO[C@H]1CN(C)C(=O)Nc1ccccc1C(F)(F)F` here?
The viability index was 0.996 ± 0.036.

How did the viability index [1] turn out when `COc1ccc2c3c([nH]c2c1)[C@@H](CO)NC[C@]31CCN(CC1)C(=O)Nc1ccccc1F` was run?
The viability index was 1.06 ± 0.057.

How did the viability index [1] turn out when `CC[C@@H]1C/C=C\C[C@@H](c2ccc(OC)cc2OC)NC(=O)[C@H](C)CC(=O)N1` was run?
The viability index was 0.967 ± 0.14.

`CCS(=O)(=O)N1C[C@@]2(C1)CN(CC1CCOCC1)[C@@H](CO)c1c2c2ccc(OC)cc2n1C` was tested. Which viability index [1] did it give?
Its viability index is 1.07 ± 0.042.

`CC(C)[C@@H]1C/C=C\C[C@@H](c2ccc(F)cc2)NC(=O)[C@H](C)CC(=O)N1` was tested. Which viability index [1] did it give?
The viability index was 0.9678 ± 0.0059.

`O=C(c1ccc(F)cc1)N1CC(=O)N2[C@H](CO)[C@H](c3ccc(C#CCC4CCCC4)cc3)[C@H]2C1` was tested. Which viability index [1] did it give?
Its viability index is 0.953 ± 0.0018.

Which viability index [1] does the source give for `CCC(=O)N1C[C@@H](O)COC[C@@H]2O[C@@H](CC(=O)NCc3ccc(Oc4ccccc4)cc3)CC[C@H]21` here?
Its viability index is 1.12 ± 0.052.

With `CO[C@@H](C(=O)N(C)C[C@H]1OCc2ccccc2-c2ccccc2C(=O)N([C@H](C)CO)C[C@@H]1C)c1ccccc1` as the compound, how does the viability index [1] read?
Its viability index is 1.04 ± 0.1.

`N#C[C@H]1[C@@H](c2ccccc2-c2ccccc2F)[C@H](CO)N1C(=O)Cc1ccccc1` was tested. Which viability index [1] did it give?
Its viability index is 1.149 ± 0.0052.

With `O=C(C[C@H]1CC[C@@H]2[C@H](COC[C@H](O)CN2C(=O)Cc2ccccc2)O1)NC1Cc2ccccc2C1` as the compound, how does the viability index [1] read?
Its viability index is 1.09 ± 0.066.
